Data published in PubChem BioAssay AID652104 (National Center for Advancing Translational Sciences (NCATS), 2013).
About 7,200 (1.8%) of roughly 410,000 compounds were called active. The shares of active, inactive and inconclusive entries below differ from those in the screen. Calls follow the shape of the dose curve; as a rule, active = well fitted activation curve with a large enough effect; inconclusive = small, poorly fitted or top-dose-only effect, or another doubt; inactive = no such curve, though single readings can be large or run the other way. No potency is given beside an inconclusive call; the fits are too rough.

assay: qHTS of TDP-43 Inhibitors; details: TDP-43 expressing yeast growth rescue, BacTiter-Glo, 24 h; growth rescue (activation): at 46.1 µM (top of the series) unless noted; also: nearly all actives have a fitted effect of over 50% in size; as to growth rescue (activation): % of control where 0% means no effect
Outline: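 Galactose-induced TDP-43 yeast, OD600=0.02, compound pinned; 24 hr, 30 deg C; BacTiter-Glo luminescence for growth. Inhibitors of TDP-43 toxicity read as activators.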
Potency is read from the fitted curve at half-maximal effect; tags tell the direction and shape of the fitted curve.

SMILES	growth rescue (activation)	Potency
CCN(CC)C(=O)CSc1nc(N)c(C(=O)Nc2ccc(OC)cc2)s1	inactive: 27.3%	–
O=C(c1cccn1-c1nnc(N2CCCC2)s1)N1CCN(c2ccc(Cl)cc2)CC1	inactive: -26.1%	–
Cc1csc(=O)n1CC(=O)OCc1cccc2ccccc12	–	inconclusive [activator, partial curve, poor fit]
CC(C)(C)c1ccc(OCCC(=O)NCCc2ccc(S(N)(=O)=O)cc2)cc1	inactive: 10%	–
Cc1ccccc1OCCC(=O)OCC(=O)Nc1c(F)cccc1F	–	inconclusive [activator, partial curve, poor fit]
O=C1S/C(=C/c2ccc(N3CCOCC3)o2)C(=O)N1Cc1ccc(F)cc1	–	inconclusive [activator, full curve]
CCOC(=O)N1CCC2(CC1)NC(=O)c1ccccc1N2	inactive: 16.1%	–
COc1ccc(/C(N)=N/OC(=O)Cc2ccc(C)cc2)cc1	–	inconclusive [activator, partial curve]
COc1cccc(CNc2cc(C)nc3nc(-c4ccc(C)cc4)nn23)c1	–	inconclusive [activator, partial curve]
N/C(CC1CC1(Cl)Cl)=N\OC(=O)c1ccccc1 (stereo not given)	–	active: 17.8 µM
COc1cccc(OC)c1NC(=O)CN1CCN(C)CC1	inactive: -18.4%	–
COc1ccc(-c2nnc(NC(=O)c3ccccc3C)o2)cc1	–	inconclusive [activator, full curve, poor fit]
Cc1ccc(C)c(-n2c(N)c(C#N)c3nc4ccccc4nc32)c1	inactive: 8.85%	–
Cc1ccccc1NCCC(=O)Nc1ccc(Cl)cc1	–	inconclusive [activator, single point]
COc1ccccc1CNC(=O)CSCc1cnn(-c2ccccc2)c1-n1cccc1	–	active: 17.8 µM
Oc1c(C(c2ccccc2)N2CCC(O)CC2)sc2nc(-c3ccco3)nn12 (stereo not given)	–	inconclusive [activator, partial curve]
O=C(CSc1cccc2cccnc12)N1CCCC1	–	inconclusive [activator, single point]
O=C(COC(=O)CCc1ccc(S(=O)(=O)N2CCOCC2)cc1)NC(=O)NC1CCCCC1	–	inconclusive [activator, full curve, poor fit]
CCOC(=O)C(Sc1cc(-c2ccccc2)nc2ncnn12)C(C)=O (stereo not given)	–	inconclusive [activator, partial curve]
CC(=O)c1ccc(Nc2nc(N3CCOCC3)nc(N3CCOCC3)n2)cc1	–	inconclusive [activator, partial curve]
